About 14,000 (4.5%) of roughly 310,000 compounds showed an effect of 50% or more. Effects have a minus sign here. This is one part of the list.
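Note: peak tail current of the secondary pulse compared with the same well before compound.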

Chain of human ether-à-go-go-related gene (hERG) potassium channel (Q12809 whole entry, looked up): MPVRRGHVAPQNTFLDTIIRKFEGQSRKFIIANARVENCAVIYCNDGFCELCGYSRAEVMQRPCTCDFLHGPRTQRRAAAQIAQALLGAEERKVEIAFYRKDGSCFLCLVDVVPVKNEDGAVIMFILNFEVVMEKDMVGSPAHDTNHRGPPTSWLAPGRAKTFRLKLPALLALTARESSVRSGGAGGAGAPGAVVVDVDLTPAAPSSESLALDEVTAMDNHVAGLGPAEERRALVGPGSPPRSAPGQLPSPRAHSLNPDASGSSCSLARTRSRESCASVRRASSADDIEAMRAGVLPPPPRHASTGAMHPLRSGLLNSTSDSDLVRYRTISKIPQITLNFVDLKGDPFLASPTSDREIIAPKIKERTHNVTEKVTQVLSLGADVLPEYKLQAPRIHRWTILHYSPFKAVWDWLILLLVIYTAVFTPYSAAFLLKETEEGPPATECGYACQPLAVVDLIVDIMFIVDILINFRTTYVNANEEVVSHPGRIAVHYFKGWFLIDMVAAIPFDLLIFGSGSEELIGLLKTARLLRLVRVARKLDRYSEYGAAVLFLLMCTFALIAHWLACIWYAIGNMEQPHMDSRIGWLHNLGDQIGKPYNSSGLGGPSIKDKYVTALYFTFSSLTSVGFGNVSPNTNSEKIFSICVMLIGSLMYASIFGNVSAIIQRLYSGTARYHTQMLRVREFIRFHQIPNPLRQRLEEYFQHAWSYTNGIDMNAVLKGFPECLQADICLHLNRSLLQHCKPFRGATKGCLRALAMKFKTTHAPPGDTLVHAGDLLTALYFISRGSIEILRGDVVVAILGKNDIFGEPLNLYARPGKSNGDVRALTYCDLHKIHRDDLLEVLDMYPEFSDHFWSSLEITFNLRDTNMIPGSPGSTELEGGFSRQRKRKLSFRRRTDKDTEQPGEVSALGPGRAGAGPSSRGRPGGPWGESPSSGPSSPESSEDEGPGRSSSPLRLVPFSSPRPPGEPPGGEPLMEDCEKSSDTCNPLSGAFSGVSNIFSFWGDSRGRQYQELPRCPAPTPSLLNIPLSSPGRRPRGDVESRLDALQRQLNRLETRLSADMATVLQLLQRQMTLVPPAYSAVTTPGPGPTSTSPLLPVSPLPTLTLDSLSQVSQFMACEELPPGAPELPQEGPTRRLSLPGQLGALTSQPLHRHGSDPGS

This assay concerns the target human ether-à-go-go-related gene (hERG) potassium channel (human, UniProt Q12809). Put plainly: primary screen, population patch clamp on CHO cells stably expressing hERG.
As for `C(=C\c1ccco1)/c1nc2ccccc2[nH]1`, the “hERG current change (%, negative = inhibition) at 10uM” value came to 8.91%.
With `CCCCN(CCCC)CCCNC(=O)C1CC(c2cc(C(F)(F)F)cc(C(F)(F)F)c2)=NO1` (centres unmarked) the figure was 3.86%; with `C=CCNC(=O)/C(=C/c1ccccc1OCC)NC(=O)c1ccccc1`, 2.63%; with `CCN(CC(=O)Nc1ccc2c(c1)OCCO2)S(=O)(=O)c1ccc(F)cc1`, 0.876%.
With `O=C(NCc1ccccc1)C1=C[C@@H](c2ccc(Br)cc2)C[C@@H](OCCCCO)O1` the figure was -36.8%; with `COc1ccc(NC(=O)C2CCCN2S(=O)(=O)c2ccc(C)cc2)cc1` (centres unmarked), -7.55%; with `CC(NC(=O)NCCCn1ccnc1)(C(F)(F)F)C(F)(F)F`, 20%.
The value for `CCc1ccccc1NC(=O)C1CCCN1S(=O)(=O)c1ccc2c(c1)n(C)c(=O)c(=O)n2C` (centres unmarked) was -3.91%; that for `COC(=O)c1ccc(NC(=O)CSc2nc3ccccc3c(=O)[nH]2)cc1` was -6.31%.
On to `C=CCO/N=C/C1C(=O)CC(C)(C)CC1=O`, for which the “hERG current change (%, negative = inhibition) at 10uM” value is 10.9%.
For `O=C(CN1CCN(c2ccc(C(F)(F)F)cn2)CC1)NCc1ccc2c(c1)OCO2`, the “hERG current change (%, negative = inhibition) at 10uM” value was -65.3%.
The value for `O=C(CSc1nc2ccccc2s1)NNC(=S)Nc1ccc(Br)cc1` was 15.8%; that for `CC(C)CC(C(=O)OCC(=O)Nc1ncc(Cl)cc1Cl)N1C(=O)c2ccccc2C1=O` (centres unmarked) was -17.9%; that for `Cc1cc(SCC(=O)N/N=C/c2ccco2)nc2ccccc12` was -1.74%.
`CCN(CC)CCCN=Cc1c(O)n(-c2cccc(C)c2C)c(=O)[nH]c1=O`: the “hERG current change (%, negative = inhibition) at 10uM” value is recorded as -10.9%.
With `Cc1cccc(C)c1NC(=O)C1CCCN1S(=O)(=O)c1ccc2c(c1)n(C)c(=O)c(=O)n2C` (centres unmarked), the “hERG current change (%, negative = inhibition) at 10uM” value was determined as 9.71%.
With `COc1ccc(S(=O)(=O)Nc2ccc3oc4ncccc4c(=O)c3c2)cc1OC` the figure was 11.3%; with `O=C(CSc1cccc(C(F)(F)F)c1)NC(=O)c1ccccc1`, 12.8%; with `O=C(O)CC(c1ccccc1)n1cnnn1` (centres unmarked), 0.93%.
With `COc1ccc(OCC(=O)N/N=C(\C)c2ccc(OC)cc2)cc1` the figure was -9.1%; with `COc1ccc(/C=N\NC(=O)c2ccccc2)cc1COc1ccc(F)cc1`, -0.876%.
The value for `O=C(NC1CCCC1)c1ccc(CN2CCOCC2)cc1` was 0.596%.
As for `COc1ccc(Cl)cc1S(=O)(=O)N1CCN(C(=O)c2ccco2)CC1`, the “hERG current change (%, negative = inhibition) at 10uM” value is -13.6%.
For `CCn1cc(C(=O)O)c(=O)c2cc(F)c(N3CCN(C(=O)Nc4ccccc4)CC3)cc21`, the “hERG current change (%, negative = inhibition) at 10uM” value is on record as 4.51%.
For `CCCCCCCCCC(=O)Nc1cccnc1`, the “hERG current change (%, negative = inhibition) at 10uM” value is recorded as -8.54%.
With `CCOc1ccc(NC(=O)CN2C(=O)CSC2=O)cc1` the figure was 24.1%; with `Cc1ccc(N2Cc3ccccc3OC(C)C2=O)cc1` (centres unmarked), 1.95%.
As for `COc1ccc(C(=O)NCc2ccncc2)cc1S(=O)(=O)N1CCOCC1`, the “hERG current change (%, negative = inhibition) at 10uM” value is given as 2.47%.
With `C/C(CC(=O)Nc1cccc(C(F)(F)F)c1)=N/NC(=O)C(=O)NCCO` the figure was 26.5%; with `O=C1/C(=C/c2ccncc2)SC(=S)N1N1CCOCC1`, 12.2%; with `O=S(=O)(Nc1ccc(Br)cn1)c1ccc2ccccc2c1`, 35.6%.
With `COc1ccccc1-c1ccc(Nc2ccc(C(=O)N3CCOCC3)cc2)nn1` the figure was -20.1%; with `COc1ccc(O)c(-c2[nH]ncc2C(=O)c2ccccc2C)c1`, -8.46%; with `COC(=O)c1[nH]c2ccc(C)cc2c1NC(=O)Nc1ccccc1OC`, -0.737%.
With `CC(C)(C)c1ccc(C(=O)N/C(=C\c2cccs2)C(=O)NCc2ccco2)cc1` the figure was -0.0534%; with `Cc1nn(C)cc1CN(C)Cc1c(C(=O)N(C)Cc2ccccc2)nc2ccccn12`, -17.5%.
Regarding `O=C(CCNC(=O)c1ccccc1Cl)Nc1nccs1`, the “hERG current change (%, negative = inhibition) at 10uM” value turned out to be 12.4%.
The value for `O=C(C1CCCO1)N1CCN(C(=S)Nc2ccc(Cl)cc2)CC1` (centres unmarked) was -27.7%.
With `CCOC(=O)/C(C#N)=C1/SC(CC)C(=O)N1c1ccc(Br)cc1` (centres unmarked) the figure was -31.5%.
As to `COc1ccc(NC(=O)CSCC(=O)Nc2cccc(S(=O)(=O)N3CCCCCC3)c2)cc1`, the “hERG current change (%, negative = inhibition) at 10uM” value is given as -25.6%.
As for `COc1cccc(N2CC(O)Cn3c2nc2c3c(=O)n(CCCc3ccccc3)c(=O)n2C)c1` (centres unmarked), the “hERG current change (%, negative = inhibition) at 10uM” value is -13.3%.
With `Nc1ccc(C(=O)c2cccs2)cn1` the figure was 16.1%; with `COc1ccccc1-n1c(O)c(/C=N/NC(=S)Nc2ccccc2)c(=O)[nH]c1=S`, 14.8%.
With `COC(=O)Cc1coc2cc(OC)ccc12`, the “hERG current change (%, negative = inhibition) at 10uM” value is listed as 11.9%.
The value for `CN(C)c1ccc(/C=N/NC(=O)COc2ccccc2)cc1` was -20.9%; that for `Cc1cc(C)cc(NC(=S)Nc2ccc3cn[nH]c3c2)c1` was -6.1%; that for `COc1cc(/C=C2\SC(=Nc3ccccc3)N(CCc3c[nH]c4ccccc34)C2=O)ccc1OC(C)C(=O)O` (centres unmarked) was 23.1%.
The value for `CCCCC#Cc1ccc(C(=O)NNC(=O)Nc2cc(Cl)cc(Cl)c2)o1` was 12.7%; that for `CCOc1ccc(NC(=O)/C(=C\c2ccc(OC(C)=O)c(OC)c2)NC(C)=O)cc1` was 11.8%.
With `O=C(N/N=C/c1ccco1)C(O)C(O)C(=O)N/N=C/c1ccco1` (centres unmarked) the figure was 18.3%; with `O=C(CN1C(=O)CCS(=O)(=O)c2ccccc21)Nc1cccc(Cl)c1`, -11.3%.
With `CC(C)(C)c1ccc(OCc2ccc(C(=O)N3CCOCC3)o2)cc1`, the “hERG current change (%, negative = inhibition) at 10uM” value is on record as -37.1%.
With `Cc1c(C(=O)NC2CCOC2)oc2c(F)cccc12` (centres unmarked) the figure was 30.1%; with `CCCN(CCC)Cc1c(C(=O)N/N=C/c2ccncc2)nnn1-c1nonc1N`, -64.1%.
With `Cc1c(CN(C)C(=O)c2ccc(Br)o2)cnn1C`, the “hERG current change (%, negative = inhibition) at 10uM” value is recorded as -7.89%.
For the compound `COc1ccc(S(=O)(=O)N2CC(=O)Nc3ccccc32)cc1F`, the “hERG current change (%, negative = inhibition) at 10uM” value is given as 18.2%.
The value for `Cc1ccccc1-n1c(O)c(/C=N/N2CCOCC2)c(=O)[nH]c1=S` was 7.14%; that for `Cc1ccc2nc(NC(=O)C3CCN(S(=O)(=O)c4cccnc4)CC3)sc2c1` was -44.1%; that for `CCOc1cnc(-c2c(-c3c(F)cccc3Cl)noc2C)o1` was -13.2%.
With `COC(=O)c1cc(NS(=O)(=O)c2ccc(OC)c(OC)c2)ccc1Cl` the figure was -18.4%; with `CCC(C)[C@H](NC(=O)[C@@H]1CSC2c3ccccc3C(=O)N21)C(=O)NCc1ccco1` (some centres unmarked), 9.18%.
With `O=C(CN1C(=O)C2CC=C(Cl)CC2C1=O)Nc1ccc(C(=O)O)cc1` (centres unmarked) the figure was 3.39%; with `Cc1onc(C(=O)NN)c1-c1csc(COc2ccccc2)n1`, 1.54%; with `C/C(Cc1ccccc1)=N\NC(=O)CNC(=O)c1ccc(C(C)(C)C)cc1`, -6.48%.
Regarding `COCc1cc(C)nc(SCC(=O)Nc2cccc3cccnc23)c1C#N`, the “hERG current change (%, negative = inhibition) at 10uM” value is listed as 10.1%.
For the compound `COc1cccc(CN(C)C(=O)/C=C/c2ccc(S(=O)(=O)N3CCCCCC3)cc2)c1`, the “hERG current change (%, negative = inhibition) at 10uM” value is listed as -7.36%.
Regarding `CN(c1ccccc1)S(=O)(=O)c1ccc(NC(=O)c2ccc(F)cc2)cc1`, the “hERG current change (%, negative = inhibition) at 10uM” value is on record as -12.5%.
With `COc1cc(/C=C2\C(=O)NN(c3ccc(C)cc3)C2=O)cc([N+](=O)[O-])c1O` the figure was 23.8%.
With `O=C(Nc1ccc2c(c1)OCCO2)c1oc2ccccc2c1NC(=O)C1CC1` the figure was 13.6%; with `O=C1CCN(Cc2nc(-c3ccc(Cl)cc3)no2)CCN1`, -14.4%.
The value for `Cc1ccc(S(=O)(=O)NC(CC(C)C)C(=O)N2CCCC2)cc1` (centres unmarked) was 1.5%.
As to `Cc1ccc(NCC(=O)N/N=C/c2cccc(Oc3ccccc3)c2)cc1`, the “hERG current change (%, negative = inhibition) at 10uM” value came to 0.288%.
The value for `FC(F)(F)c1cccc(CNC2c3ccccc3-c3ccccc32)c1.O=C(O)C(=O)O` was 20.4%.
Turning to `Cc1c(C(=O)N/N=C/c2ccc(-c3ccccc3[N+](=O)[O-])o2)sc(N)c1C#N`, the “hERG current change (%, negative = inhibition) at 10uM” value is given as 12.1%.
With `COc1ccc(/C=C(\C#N)C(=O)OCC(=O)NC(C)c2ccccc2)cc1` (centres unmarked) the figure was -0.608%; with `Cc1csc(NC(=O)Cc2coc3cc(C)c(C(C)C)cc23)n1`, 7.87%; with `CCN(CC)S(=O)(=O)c1ccc2c(c1)nc(SCc1nc3ccsc3c(=O)[nH]1)n2CC`, -30.8%.
The value for `CSc1nc2c(c(=O)[nH]c(=O)n2C)n1C/C=C(\C)Cl` was -27.5%.
`COCCNC(=O)c1cccc(OC2CCN(Cc3ccc(C(=O)OC)cc3)CC2)c1`: the “hERG current change (%, negative = inhibition) at 10uM” value was -40.5%.
The value for `CC1CCCC(C)N1C(=O)CSc1nc(N)cc(N)n1` (centres unmarked) was -0.387%; that for `O=P(Cc1ccccc1)(c1ccccc1)c1ccccc1` was 6.03%.
With `CCCc1cc(NCCCn2ccnc2)n2nc(C)c(-c3ccccc3)c2n1` the figure was -74.9%; with `N#Cc1cc(S(=O)(=O)N2CCOCC2)ccc1N1CCOCC1`, -7.53%; with `CN(C)S(=O)(=O)c1cccc(NC(=O)c2ccc(COc3ccccc3)cc2)c1`, 1.32%.
The value for `CCc1cccc(NC(=O)C2CCN(S(=O)(=O)c3ccc4c(c3)NC(=O)CO4)CC2)c1` was -28%; that for `Cc1nn(S(=O)(=O)c2ccccc2)c(C)c1S(=O)(=O)N1CCC(C)CC1` was 14.5%.

These data come from article PMC4336329 (PLoS ONE, 2015).
